# Screen size: about 310,000 compounds; about 14,000 (4.5%) showed an effect of 50% or more. The effect is printed as a negative number. This is one part of the list.
# Molecular target: human ether-à-go-go-related gene (hERG) potassium channel (human, UniProt Q12809)
# Test: primary screen, population patch clamp on CHO cells stably expressing hERG
# 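Note: peak tail current of the secondary pulse compared with the same well before compound.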
# Chain of human ether-à-go-go-related gene (hERG) potassium channel (Q12809 whole entry, looked up): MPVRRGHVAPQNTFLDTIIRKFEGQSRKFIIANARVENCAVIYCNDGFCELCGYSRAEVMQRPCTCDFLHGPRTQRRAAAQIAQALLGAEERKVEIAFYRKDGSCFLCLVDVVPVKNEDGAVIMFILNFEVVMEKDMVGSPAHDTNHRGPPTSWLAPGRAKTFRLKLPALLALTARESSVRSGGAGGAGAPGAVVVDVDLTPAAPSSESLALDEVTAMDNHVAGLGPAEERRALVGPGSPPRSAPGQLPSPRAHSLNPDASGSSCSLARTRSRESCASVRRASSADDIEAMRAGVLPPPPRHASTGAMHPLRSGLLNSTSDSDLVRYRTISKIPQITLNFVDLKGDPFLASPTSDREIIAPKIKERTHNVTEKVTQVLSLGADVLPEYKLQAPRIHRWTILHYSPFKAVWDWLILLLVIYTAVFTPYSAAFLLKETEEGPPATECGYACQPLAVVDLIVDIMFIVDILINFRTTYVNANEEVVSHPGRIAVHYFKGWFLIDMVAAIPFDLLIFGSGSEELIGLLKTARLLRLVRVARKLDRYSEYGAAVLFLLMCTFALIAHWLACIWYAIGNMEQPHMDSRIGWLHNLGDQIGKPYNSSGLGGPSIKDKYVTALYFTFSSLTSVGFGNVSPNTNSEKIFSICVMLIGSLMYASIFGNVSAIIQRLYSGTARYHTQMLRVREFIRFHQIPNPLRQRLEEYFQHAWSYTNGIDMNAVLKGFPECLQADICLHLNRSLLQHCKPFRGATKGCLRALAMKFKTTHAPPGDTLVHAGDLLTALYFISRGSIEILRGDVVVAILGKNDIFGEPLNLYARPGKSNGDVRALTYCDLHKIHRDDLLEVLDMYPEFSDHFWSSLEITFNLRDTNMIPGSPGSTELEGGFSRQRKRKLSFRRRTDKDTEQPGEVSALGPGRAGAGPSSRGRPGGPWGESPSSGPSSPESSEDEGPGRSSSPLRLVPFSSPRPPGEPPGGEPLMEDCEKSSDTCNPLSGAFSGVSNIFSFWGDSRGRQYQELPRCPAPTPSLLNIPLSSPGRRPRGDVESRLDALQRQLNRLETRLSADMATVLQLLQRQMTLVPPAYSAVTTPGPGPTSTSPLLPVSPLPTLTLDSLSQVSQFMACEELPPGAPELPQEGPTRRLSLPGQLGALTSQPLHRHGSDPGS
row,Compound,"hERG current change (%, negative = inhibition) at 10uM"
1,COCCN(CCOC)C(=O)c1ccc(SCc2ccc(C)cc2)c([N+](=O)[O-])c1,-43.8%
2,CC1C(=O)Nc2ccccc2N1C(=O)c1ccc(O)cc1 (stereo not drawn),5.81%
3,C=CCNC(=O)CN(Cc1ccccc1)S(=O)(=O)c1ccccc1,-4.02%
4,CCN(CC)c1ccc(/C=N/NC(=O)c2cccc(S(=O)(=O)Nc3ccccc3OC)c2)cc1,2.69%
5,CCOC(=O)C1CCCN(C(=O)c2cc3cc(F)ccc3[nH]2)C1 (stereo not drawn),-7.96%
6,O=C(O)c1ccc2c(c1)N(Cc1ccc(F)cc1)C(=O)c1ccccc1S2,-1.07%
7,CCNS(=O)(=O)c1ccc2nc(NC(=O)/C=C/c3cc(OC)c(OC)c(OC)c3)sc2c1,-4.17%
8,Clc1ccc(NCc2nncn2-c2ccccc2)cc1,-7.52%
9,Cc1ccc(-c2nc3ccc(C(=O)O)cc3nc2-c2ccc(C)cc2)cc1,4.24%
10,Cc1ccc(-n2c(-c3ccccc3)c[nH]c2=S)cc1,-1.47%
11,CC(=O)C1C(=O)CC(C)(O)C(C(C)=O)C1c1ccc(N(C)C)cc1 (stereo not drawn),18%
12,COc1ccc(C2CC(c3c(-c4ccccc4)c4cc(Cl)ccc4[nH]c3=O)=NN2S(C)(=O)=O)cc1OC (stereo not drawn),9.73%
13,COc1ccc(-c2oc3ncnc(NCCCN(C)C)c3c2-c2ccc(OC)cc2)cc1,-60.2%
14,CC(C)OCCCNc1nc(-c2ccccc2)nc2ccccc12.Cl,-2.52%
15,COc1ccccc1CN1C(=O)[C@@H]2C(CCC(N)=O)NC3(C(=O)Nc4c3ccc(Cl)c4C)[C@@H]2C1=O (stereo partly drawn),-5.7%
16,CCCCc1nc2cc(C(=O)NC3CCOC(C)(C)C3)ccc2o1 (stereo not drawn),-15.2%
17,CCCN1C=CC(=C/C=C(\C#N)C(=O)OCC)C=C1,-6.49%
18,COc1ccc(-n2ncc3c2CC(C)(C)CC3NC(=O)C2CCN(C(C)=O)CC2)cc1 (stereo not drawn),-34.5%
19,CC1(C)CC(CC(=O)O)(c2ccc(F)cc2)CCO1 (stereo not drawn),3.33%
20,NC(=O)c1cccnc1Oc1ccc(Cl)cc1,-1.03%
21,COc1cc(/C=N/NC(=O)CCc2n[nH]c(=O)[nH]c2=O)ccc1O,-0.627%
22,CSc1nccc(Oc2ccccc2Cl)n1,12.1%
23,O=C(NC1CCCC1)C(c1ccncc1)N(C(=O)Cc1cccs1)c1cccc(F)c1 (stereo not drawn),6.82%

row,Compound,"hERG current change (%, negative = inhibition) at 10uM"
1,COc1cc([N+](=O)[O-])ccc1NC(=O)CSc1n[nH]c(C(C)C)n1,24.6%
2,CC(=O)Nc1c(NC(C)C)c2ccccc2oc1=O,12.9%
3,O=C1CCCN1CCC(=O)N1CCCC(CO)(Cc2ccccc2)C1 (stereo not drawn),31.6%
4,CC(C)N1CCCC(CNC(=O)CCc2nnc(CCCCc3ccccc3)o2)C1 (stereo not drawn),17.5%
5,CCN(CC)S(=O)(=O)c1ccc(C(=O)Nc2nnc(C(C)C)s2)cc1,-3.69%
6,Fc1cc(F)c(C2SCCN2C(=S)Nc2cccc(C(F)(F)F)c2)c(F)c1 (stereo not drawn),15.1%
7,Cc1cc(N=Cc2c(O)n(-c3cccc(Cl)c3)c(=O)c3ccccc23)no1,-5.29%
8,CCOC(=O)c1cnc(SC)nc1Sc1ccccc1,-16.6%
9,COc1ccc(CC(=O)N2CCN(c3ccccc3F)CC2)cc1OC,-21.1%
10,O=S(=O)(Cc1ccccc1)N1CCN(Cc2ccc3c(c2)OCO3)CC1,-6.28%
11,Cc1ccc(S(=O)(=O)N(Cc2ccccc2)c2ccccc2C(=O)Nc2ccccc2C(=O)NCc2ccco2)cc1,10.5%
12,COc1ccc(CCNC(=O)N[C@@H](Cc2ccccc2)C(=O)O)cc1,19.1%
13,Cc1ccc(C(=O)NCCc2nc3ccccc3[nH]2)cc1[N+](=O)[O-],-31.8%
14,C=CCN(c1ccc(C(=O)N(CC)CC)cc1)S(C)(=O)=O,-4.12%
15,COc1ccccc1Oc1ccc(-c2cnc3ccccc3n2)cc1[N+](=O)[O-],23.8%
16,C#CCOc1c(Br)cc(/C=C2/C(=O)ON=C2C)cc1OCC,20.3%
17,COc1ccc(CC(=O)n2nc(-c3cccnc3)nc2N)cc1,6.03%
18,O=C(Nc1cccc([N+](=O)[O-])c1)ONC1=NCCCCC1,-9.32%
19,COc1ccc(-n2c(SCC(=O)N3CCOCC3)nc(O)cc2=O)cc1,19.1%
20,COC(=O)c1c(-c2ccccc2)csc1N1C(=O)Nc2ccccc2N1O,2.61%
21,C/C(=N/NC(N)=S)c1ccccc1[N+](=O)[O-],7.13%
22,COC(=O)c1ccc(-c2csc(NC(=O)c3ccc(S(=O)(=O)N4CCc5ccccc5C4)cc3)n2)cc1,1.75%
23,Nn1c(SCC(=O)NCc2ccccc2)nnc1C1CC1,-11.8%

row,Compound,"hERG current change (%, negative = inhibition) at 10uM"
1,CN=C1NN=C(c2cc(C)n(-c3ccc(Cl)cc3)c2C)CS1,11.9%
2,Cc1nn(C)c(Cl)c1CN1CCC(CO)(CCOc2ccccc2)CC1,-54.7%
3,Cc1ccnc(SCCn2c(Br)nc3c2c(=O)[nH]c(=O)n3C)n1,-9.85%
4,CC(OC(=O)CN1C(=O)NC2(CCCC2)C1=O)c1ccc(F)cc1 (stereo not drawn),-16.9%
5,COc1ccc(CCNC(=S)Nc2ccc(OC)cc2)cc1,-5.46%
6,O=C(c1ccco1)c1cn(CC(=O)N2CCCCCC2)c2ccccc12,7.15%
7,COc1ccc(C(=O)NC(=S)SCC(=O)O)cc1,21.8%
8,O=C1N=c2ccccc2=C1c1sc(NS(=O)(=O)Cc2ccccc2)nc1O,8.85%
9,CCOc1ccc(NC(=O)CSc2nnc(-c3ccco3)n2N)cc1,-13.8%
10,CCOC(=O)C(NC(C)=O)C(=O)O (stereo not drawn),14.2%
11,Cn1c(SCC(=O)N2CCCC2=O)nc2ccccc21,28.2%
12,CCOC(=O)c1c(OCCO)noc1N,16.6%
13,CC(=O)c1coc2ccc(OCC(=O)O)cc12,-6.05%
14,CCc1ccccc1NC(=O)CSc1n[nH]c(-c2cccnc2)n1,-14.5%
15,COc1ccc(Cl)cc1NC(=O)COC(=O)c1ccc(Cl)nc1,-36.4%
16,O=C(CN1C(=O)S/C(=C\C=C\c2ccccc2)C1=O)N1CCCCC1,10.8%
17,COc1ccc(N2C(=O)CC(N(Cc3ccc(S(N)(=O)=O)cc3)C(C)=O)C2=O)cc1 (stereo not drawn),7.69%
18,COc1ccc(CN(C)CC(=O)NC(=O)Nc2ccccc2F)cc1,2.87%
19,CCC1CCCCN1CCCNC(=O)CCNC(=O)Cn1cnc2ccccc2c1=O (stereo not drawn),-0.683%
20,CC/C(O)=C1\C(=O)CCCC1=NCc1nc2ccccc2[nH]1,1%
21,COc1ccc(NC(=O)c2cccc(OC(F)F)c2)cc1Cl,-22.2%
22,CN(C(=O)CSc1nc(-c2ccc(C(C)(C)C)cc2)c(C#N)c(=O)[nH]1)C1CCCCC1,14.9%
23,COc1ccc(C(C(=O)NC2CCCCC2)N(Cc2ccco2)C(=O)c2ccccn2)c(OC)c1 (stereo not drawn),-4.76%

row,Compound,"hERG current change (%, negative = inhibition) at 10uM"
1,CC(C)NC(=O)c1cc(-c2ccc(Br)cc2)on1,-10.1%
2,c1ccc(-c2nnc3sc(-c4csc5c4CCCC5)nn23)cc1,5.9%
3,Cc1ccc(C(c2nnnn2CC2CCCO2)N2CCN(Cc3ccccc3)CC2)cc1 (stereo not drawn),-74.9%
4,Cc1ccc(C)c(OCCC(=O)OCC(=O)NC2CCS(=O)(=O)C2)c1 (stereo not drawn),-3.37%
5,CCc1cccc(CC)c1NC(=S)NCCc1ccc(O)c(O)c1,-11.3%
6,Cc1ccc(-c2c3c(=O)n(C)c(=O)n(C)c3cn2CCCN2CCOCC2)cc1,10.5%
7,Cc1ccc(C(=O)OC(C)C(=O)Nc2ccc(S(N)(=O)=O)cc2)cc1S(=O)(=O)N1CCOCC1 (stereo not drawn),-2.9%
8,COc1ccc(C(=O)c2ccc(N3CCN(C4CC(=O)NC4=O)CC3)cc2)cc1F (stereo not drawn),-43.2%
9,O=C(O)c1cccc(C(=O)c2cccc3ccccc23)c1,0.874%
10,Cc1c(C(=O)O)c2cc(O)ccc2n1-c1ccccc1,-6.65%
11,CC1CCCCN1C(=O)CSc1nnc(-c2cccnc2)o1 (stereo not drawn),8.03%
12,CC(=O)c1cn(CC(=O)NCCc2c[nH]c3ccccc23)c2ccccc12,-0.922%
13,COc1cc(OC)cc(C(=O)n2nc(C)cc2C)c1,3.24%
14,CN(C(=O)c1ccc([N+](=O)[O-])cc1)c1ccccc1C(=O)NCc1ccccc1,-7.6%
15,O=C1c2ccccc2CN1C(CO)c1ccccc1 (stereo not drawn),16.9%
16,Cc1cc(=S)cc(C)n1CCCn1ccnc1,-1.53%
17,CC1(C)C(=O)Nc2ccccc2N1C(=O)COc1ncnc2ccccc12,-1.28%
18,COc1cc(OC)c2c(c1)C(=O)c1cc(OC)cc(OC)c1C2=O,10.9%
19,Cc1cc(C(=O)CN2CCCCC2)c(C)n1-c1ccc(F)cc1,-6.55%
20,O=C(O)CSCc1ccc(C(=O)O)o1,27.2%
21,CC(=O)N1CCN(c2ccc(NC(=O)c3ccc(F)cc3)cc2)CC1,-57.7%
